Laboratory results reported in PubChem BioAssay AID1345083 (National Center for Advancing Translational Sciences (NCATS), 2018).
The whole screen tested about 94,000 compounds, of which about 6,200 (6.6%) were called active. The inconclusive results got no clear call from the source; some entries with a clear call stand among them for comparison. The call rests on the fitted dose curve; in most records, active means well fitted inhibition curve with a large enough effect; inconclusive means small, poorly fitted or top-dose-only effect; inactive means flat fitted curve, though single readings scatter. Potencies beside an inconclusive call are fits to weak or partial responses and may not hold up.

Test: Cytotoxic Profiling in HEK 293 Cell Line of Diverse Libraries Using Quantitative High-Throughput Screening; further: nearly all actives have a fitted effect of over 60% in size
Details: HEK 293 viability, ATP luminescence (CellTiter-Glo), 48-72 h; activity change, negative = cytotoxicity: at 115 µM (top of the series) unless noted; series mostly up to 115 µM
Method in brief: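 Read-out: CellTiter-Glo ATP luminescence. Cells: HEK 293, 250 cells/well. Exposure: 48 or 72 hr, 37 degree Celsius.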
On the % scale 0 is the no-effect control and ±100 the full control effect; potency means the concentration at half of the fitted maximal effect; tags describe the fitted curve by direction and shape.

| Compound | Potency | activity change, negative = cytotoxicity | outcome |
| --- | --- | --- | --- |
| Cc1ccsc1CN1CCCCCCNC(=O)CC1 | inconclusive: 50.1 µM [inhibitor, partial curve, poor fit] | – | – |
| CCOc1cccc(CN2CC(Oc3ccccc3C(=O)NC3CC3)C2)c1 | inconclusive: 79.4 µM [inhibitor, partial curve, poor fit] | – | – |
| O=C(NCC1CCCCCC1)C1CCN(Cc2ccccc2-c2cccnc2)CC1 | inconclusive: 50.1 µM [inhibitor, partial curve, poor fit] | – | – |
| c1ccc(CCN2CCNc3cc(NCc4cccnc4)ncc3C2)cc1 | active: 50.1 µM | – | – |
| O=C(Cc1ccccn1)NC1CCN(c2nc3ncccc3o2)C1 (configuration not stated) | – | inactive: -13.1% [at 172 µM] | – |
| O=C(NC1CCN(Cc2ccccc2)CC1)C1CN(C2CCCCC2)C(=O)N1 (configuration not stated) | inconclusive: 50.1 µM [inhibitor, partial curve, poor fit] | – | – |
| O=C(C1CCCN(Cc2cccc(-c3cccs3)c2)C1)N1CCCC1 (configuration not stated) | active: 70.8 µM | – | – |
| O=C1Nc2ccccc2CC12CCCN(Cc1ccccc1)C2 (configuration not stated) | – | inactive: -23.6% [at 172 µM] | – |
| O=C(NCC1CC1)c1cn(C2CN(C(=O)NC3CCCCC3)C2)nn1 | – | inactive: -9.61% | – |
| O=C(Nc1ccc2c(N3CCCCC3)ncnc2c1)c1ccsc1 | inconclusive: 56.2 µM [inhibitor, partial curve, poor fit] | – | – |
| CNC(=O)c1cccc(-c2ccccc2COc2ccc(CCOC)cc2)n1 | inconclusive: 89.1 µM [inhibitor, single point] | – | – |
| O=C(NCCCc1ccccn1)c1ccc2nc(-c3ccc(F)cc3)cn2c1 | active: 44.7 µM | – | – |
| CCc1nc2c(c(-c3ccc(O)cc3)n1)CN(C(=O)C(C)(C)C)CC2 | inconclusive: 39.8 µM [inhibitor, full curve, poor fit] | – | – |
| Cc1noc(C)c1-c1cc2cc(CNC(C)C)oc2c(NC2CCN(C)CC2)n1 | active: 63.1 µM | – | – |
| O=C1NC(C(=O)NCc2ccccc2)Cn2cccc21 (configuration not stated) | – | – | inactive |
| CCCCN(C)C(=O)CCC1CCN(c2cc(NC3CC3)ncn2)CC1 | active: 31.6 µM | – | – |
| Cc1cnc(C(=O)N2CCCCCCNC(=O)[C@@H]3C[C@@H](C(=O)N4CCc5ccccc5C4)C[C@@H]32)cn1 | inconclusive: 89.1 µM [inhibitor, partial curve, poor fit] | – | – |
| O=C(CC1COCCN1)N1CCN(C/C=C/c2ccccc2)CC1 (configuration not stated) | inconclusive: 11.2 µM [inhibitor, partial curve, poor fit] | – | – |
| C[S+](=O)([O-])c1ccc(-c2cc(C(=O)N3CCN(c4ncccn4)CC3)nn3cccc23)cc1 | active: 50.1 µM | – | – |
| CN1CCCC[C@]2(C[C@H](CO)[C@H](c3ccccc3)N2C(=O)CC2CCCC2)C1=O | inconclusive: 31.6 µM [inhibitor, partial curve] | – | – |
| O=C([C@@H]1C[C@H](F)CN1S(=O)(=O)c1cccc(F)c1)N1CCCCC1 | inconclusive: 79.4 µM [inhibitor, partial curve, poor fit] | – | – |

| Compound | Potency | activity change, negative = cytotoxicity | outcome |
| --- | --- | --- | --- |
| CCN1C(=O)Cc2cc(C(=O)Nc3ccccc3)ccc21 | inconclusive: 39.8 µM [inhibitor, full curve, poor fit] | – | – |
| Cc1cccc(C(=O)NC2CCN(c3cc(-c4cccs4)[nH]n3)C2)c1 (configuration not stated) | inconclusive: 50.1 µM [inhibitor, partial curve, poor fit] | – | – |
| COc1ccc(NC(=O)c2ccc3c(c2)N(C(=O)c2ccc(F)cc2)CC3)cc1 | inconclusive: 44.7 µM [inhibitor, partial curve, poor fit] | – | – |
| O=C(Nc1ccc(F)cc1)C1CCCN(c2ccnc3ccnn23)C1 (configuration not stated) | inconclusive: 39.8 µM [inhibitor, partial curve, poor fit] | – | – |
| Cc1oc(C(O)c2cncnc2)nc1C(=O)Nc1ccc2c(c1)NC(=O)CO2 (configuration not stated) | – | inactive: -10.8% [at 172 µM] | – |
| COc1ccc(CN2C(=O)[C@@H]3C[C@@H](CN3C(=O)c3ccc(Cl)cc3)Oc3ccccc32)cc1 | inconclusive: 50.1 µM [inhibitor, partial curve, poor fit] | – | – |
| Cc1ccc2c(n1)OC1(CCCC1)CN(CC1CC1)C2=O | inconclusive: 39.8 µM [inhibitor, single point] | – | – |
| COc1cccc(CNC(=O)C2CCN(Cc3ccccc3-c3cccnc3)CC2)c1 | inconclusive: 56.2 µM [inhibitor, partial curve, poor fit] | – | – |
| COc1ccccc1CC(=O)N1CCCc2ncc(C(=O)Nc3cccnc3)cc21 | inconclusive: 126 µM [inhibitor, single point] | – | – |
| Cc1nc2ccccc2n1CCC(=O)N1C[C@@H](C)[C@](O)(C(C)C)C1 | – | inactive: -14.1% | – |
| O=C(NC1CCN(c2cnn(Cc3ccccc3)c(=O)c2)CC1)c1ccoc1 | – | inactive: 0.625% | – |
| COCCN1C(=O)[C@H]2CN(Cc3cccc(C(F)(F)F)c3)C[C@H]2C1=O | inconclusive: 89.1 µM [inhibitor, partial curve, poor fit] | – | – |
| O=C1NC2(CCN(CC3CCCCC3)C2)Oc2ccccc21 (configuration not stated) | active: 63.1 µM | – | – |
| COc1ccc(CNC(=O)CNC(=O)c2cccc(-c3ccc(SC)cc3)c2)cc1OC | active: 31.6 µM | – | – |
| O=C1CO[C@H]2CCN(Cc3ccncc3)CC[C@@H]2N1Cc1ccccc1 | inconclusive: 112 µM [inhibitor, partial curve, poor fit] | – | – |
| O=C1CCN(C(=O)C2(c3ccccc3)CC2)CCCC(C(=O)NCc2ccccc2)CCN1 (configuration not stated) | – | inactive: 2.41% | – |
| COc1ccccc1Cn1c(=O)c(C(=O)NC(C)C)nc2cccnc21 | inconclusive: 28.2 µM [inhibitor, full curve, poor fit] | – | – |
| CN1[C@@H](CCC(=O)NCc2ccc(F)cc2)CNC(=O)[C@@H]2[C@H]1CCN2Cc1ccc(C(F)(F)F)cc1 | inconclusive: 44.7 µM [inhibitor, partial curve, poor fit] | – | – |
| CCOc1ccc(-c2noc(-c3nc(CC)no3)n2)cc1 | inconclusive: 56.2 µM [inhibitor, partial curve, poor fit] | – | – |
| COc1ccccc1CN1CCc2c(n(CCOc3ccccc3)n(-c3ccccc3)c2=O)C1 | inconclusive: 56.2 µM [inhibitor, partial curve, poor fit] | – | – |
| Cc1ccccc1C(=O)NC1CCCN(Cc2ccc(-c3cncnc3)cc2)C1 (configuration not stated) | inconclusive: 50.1 µM [inhibitor, partial curve, poor fit] | – | – |
